Results: the supplement of paper PMC3334620
Whole data set: some 33,000 sequences, median “E-score (-0.5 to 0.5)” near -0.013, cut for the highest 2% near 0.3. This is one part of the list.

Molecular target: T1, Msn1 (UniProt P22148)
T1 sequence: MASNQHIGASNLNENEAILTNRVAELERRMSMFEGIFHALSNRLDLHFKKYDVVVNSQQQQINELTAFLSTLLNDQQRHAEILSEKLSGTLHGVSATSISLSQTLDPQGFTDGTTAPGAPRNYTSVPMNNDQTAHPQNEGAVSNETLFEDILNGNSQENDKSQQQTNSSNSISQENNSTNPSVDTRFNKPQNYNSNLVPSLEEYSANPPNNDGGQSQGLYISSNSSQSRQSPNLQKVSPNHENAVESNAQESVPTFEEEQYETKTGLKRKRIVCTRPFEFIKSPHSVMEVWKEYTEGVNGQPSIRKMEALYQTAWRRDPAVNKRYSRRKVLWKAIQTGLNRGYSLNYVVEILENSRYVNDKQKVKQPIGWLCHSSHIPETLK
Experiment: PBM E-score (8-mer binding enrichment) (E-score (-0.5 to 0.5)); higher = stronger / more preferred TF binding; most listed sequences are background and not binding sites
Conditions: protein concentration: 200 nM; construct: GST-full length
In short: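 The E-score, a modified Wilcoxon-Mann-Whitney statistic, was computed by the Universal PBM Analysis Suite for every ungapped eight-base word pooled with its reverse complement. Scans behind it were normalised with masliner after bound GST-tagged yeast transcription factors were detected with fluorescent anti-GST. The proteins, at about 100-200 nM, had been applied to universal all-10-mer Agilent arrays made double-stranded by primer extension.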

Row | Sequence | PBM E-score
1 | ATGACGTC | 0.118
2 | AAGGTCTC | -0.0547
3 | AACCCCTG | -0.299
4 | TTCGCAAA | 0.167
5 | ATCTAAAC | -0.019
6 | GCAACGAA | 0.106
7 | AGGAGAAT | -0.0793
8 | AGTTGATC | -0.143
9 | ACTGCCAA | 0.0843
10 | AGAATATC | 0.0546
11 | ACGAACGA | 0.0578
12 | AGACATGG | 0.221
13 | GTTTGTGA | 0.0517
14 | AGACGTGA | 0.207
15 | AACTGAGC | -0.209
16 | CCGATAGG | 0.0659
17 | ATCAATGG | -0.191
18 | CGTCATGC | -0.176
19 | CGAGATGC | 0.0614
20 | ATCCTTGA | -0.0979
21 | AATTTCCG | 0.19
22 | ATATCAGG | 0.0389
23 | GGGACCCA | -0.139
24 | ACCCTCAA | -0.169
25 | ATTTCAAA | 0.2

Row | Sequence | PBM E-score
26 | GGTGGGAA | -0.00011
27 | CCTCCGCC | -0.221
28 | AATAGCTG | -0.128
29 | CACGCGCA | -0.113
30 | CAACTCGA | -0.045
31 | AGTAGGCG | -0.0529
32 | CTATAGTA | 0.0301
33 | ACGACTGA | -0.0194
34 | ATTGTCTC | 0.378
35 | CGCCATGA | 0.0409
36 | TACTGTAA | 0.141
37 | TGAAACCA | -0.0996
38 | AGCCTTAT | -0.0506
39 | GGGATCAA | -0.142
40 | GACGGACA | 0.386
41 | CTCAAGCC | -0.119
42 | CGGTGGAG | -0.254
43 | GAGAGAGC | -0.221
44 | CGGCCGAA | 0.141
45 | GAATGCGA | -0.0548
46 | AGTAGCTA | -0.0446
47 | CTATCCAG | 0.00503
48 | GTTTCGGA | 0.159
49 | GGTAGCAC | -0.289
50 | AGCATACA | 0.0845

Row | Sequence | PBM E-score
51 | ATTATTTC | 0.146
52 | AGGCCGTG | 0.0755
53 | AAGTAATT | 0.166
54 | CACAACGC | 0.00979
55 | CCTCCCAG | -0.285
56 | GCCGTGGA | -0.212
57 | AGAACAAC | 0.0966
58 | CGACACTA | 0.142
59 | CATTTATA | 0.152
60 | CTGGTTCA | -0.0582
61 | AAGCCCTT | -0.186
62 | AGGGGACG | -0.0829
63 | CATACCCA | 0.0872
64 | AATAAGTA | 0.0687
65 | AGATTTGA | 0.0853
66 | GCGCCCTA | -0.259
67 | AGTCCAAC | -0.0244
68 | GGGGTTCA | -0.0583
69 | ATCTTTCA | 0.101
70 | AGTCTTGC | -0.0197
71 | AAAAAGTG | -0.0627
72 | ACAAGCAC | 0.0568
73 | GTGTACGA | 0.00375
74 | GCCCAGAC | -0.205
75 | ATAGTGAT | 0.0639

Row | Sequence | PBM E-score
76 | CCTGAAAA | -0.0401
77 | CCGGTCGC | -0.132
78 | ACTCTTAC | 0.158
79 | CGGTCCGA | 0.033
80 | AAGTGTAG | 0.0489
81 | AATAGGAG | -0.243
82 | GACGCAGC | 0.0704
83 | TAGAAAGA | -0.0909
84 | AGAAGCGC | 0.0875
85 | AATTGAAG | -0.0362
86 | ACTAGGAG | -0.201
87 | AGTTAGGG | -0.123
88 | CCCGTTCC | -0.229
89 | AAACTTAA | 0.205
90 | ATTACGAC | 0.186
91 | GAGTCCCA | 0.103
92 | CCATTAGA | -0.188
93 | ATCTAATG | -0.014
94 | CACAAACA | 0.138
95 | CTACATTA | 0.00564
96 | AGAACACC | 0.0348
97 | ACACAAGA | 0.217
98 | GAGATTCC | -0.043
99 | AATCTTCC | -0.111
100 | ATGTTAGG | 0.0629

Row | Sequence | PBM E-score
101 | AGAAGTCT | 0.0496
102 | CCGGACGA | 0.199
103 | CCTTCAGA | -0.0625
104 | CACACGCG | 0.0769
105 | CTCGAATC | -0.213
106 | CCCGGGCA | -0.0206
107 | AGACCGGG | 0.0102
108 | ACGCAAGG | -0.0432
109 | AGCGCTAG | -0.102
110 | CTACCTCA | -0.257
111 | CATGTCCG | 0.436
112 | CAGTAGGA | 0.0016
113 | AGGGTTGA | -0.108
114 | AAATCCTT | -0.124
115 | CACCGGTC | -0.221
116 | TACCGGCA | 0.00495
117 | ACCGACTG | -0.0882
118 | AACAAAAC | 0.199
119 | ATAACAGA | 0.113
120 | GAATCGGA | 0.161
121 | CTAGTCCA | 0.139
122 | CCCGACCG | -0.19
123 | CGGTCTCC | -0.262
124 | ACGATACG | -0.0335
125 | CGAAGGGA | -0.0442

Row | Sequence | PBM E-score
126 | GGCAACGA | 0.126
127 | CAAAGTGA | 0.108
128 | CAACCCCA | -0.0389
129 | CAGACACC | -0.0175
130 | AGTTTGAT | 0.232
131 | GACACTTA | 0.0257
132 | GCTGCAGA | 0.0331
133 | AAACACTT | 0.0611
134 | ATGTCAAA | 0.323
135 | AACGCGAG | 0.00199
136 | TAGGATCA | -0.0325
137 | ACACGCAA | -0.065
138 | GCAACCCA | -0.0206
139 | GCCCCGGA | -0.147
140 | AGTGATCA | -0.0629
141 | AGACGTAT | -0.00259
142 | CCAAACCA | -0.0345
143 | GGCGCACC | -0.23
144 | AACTGCAG | -0.1
145 | GTTATTAA | 0.141
146 | ACCCGTAC | -0.0147
147 | ATAAAGGC | -0.0646
148 | AGAACTCA | -0.0366
149 | ACTGACCC | 0.00925
150 | AGTAGTGG | -0.0372

Row | Sequence | PBM E-score
151 | CGGGTCTA | -0.0147
152 | AATTAGAA | -0.0868
153 | ACATGTCA | 0.358
154 | AGGCGGGC | -0.253
155 | CTTGAAGC | -0.0024
156 | GAACTCAC | -0.116
157 | ATAGGCGC | -0.0181
158 | AGGAAAGC | -0.195
159 | ACTAAAGT | -0.0264
160 | CGACAATC | 0.113
161 | CCCCGTCA | -0.154
162 | ATTCCAGC | -0.113
163 | ACCCCTAG | -0.2
164 | ACGTATAA | 0.0167
165 | CGGATGCA | 0.0174
166 | GAATTTGC | -0.0121
167 | GGTGAGAC | 0.0221
168 | AGTCTTCC | 0.0143
169 | ATGTTCCC | 0.13
170 | AACTGCAA | 0.0375
171 | CATAAAGA | 0.049
172 | CTACGAAA | -0.0344
